Measured values from publication PMC6919601, “Identification of Plasmodium dipeptidyl aminopeptidase allosteric inhibitors by high throughput screening” (PLoS ONE, 2019).
Several values for one entry are separate records, joined by “and”; a condition that tells them apart may be missing. Equal values may be shown once. About 230 (0.21%) of roughly 110,000 compounds showed an effect of 50% or more. Some of the results follow.

molecular target: DPAP1 (Plasmodium falciparum, UniProt Q8IIJ9); assay: primary screen, percent inhibition; read by cleavage of a fluorogenic dipeptide substrate; higher = more effect of the substance; design: species or system P. falciparum D10 trophozoite lysates; single well
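Further: 30 min substrate incubation versus DMSO and 10 µM JCP410 controls.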

Sequence of DPAP1 (Q8IIJ9 whole entry, looked up): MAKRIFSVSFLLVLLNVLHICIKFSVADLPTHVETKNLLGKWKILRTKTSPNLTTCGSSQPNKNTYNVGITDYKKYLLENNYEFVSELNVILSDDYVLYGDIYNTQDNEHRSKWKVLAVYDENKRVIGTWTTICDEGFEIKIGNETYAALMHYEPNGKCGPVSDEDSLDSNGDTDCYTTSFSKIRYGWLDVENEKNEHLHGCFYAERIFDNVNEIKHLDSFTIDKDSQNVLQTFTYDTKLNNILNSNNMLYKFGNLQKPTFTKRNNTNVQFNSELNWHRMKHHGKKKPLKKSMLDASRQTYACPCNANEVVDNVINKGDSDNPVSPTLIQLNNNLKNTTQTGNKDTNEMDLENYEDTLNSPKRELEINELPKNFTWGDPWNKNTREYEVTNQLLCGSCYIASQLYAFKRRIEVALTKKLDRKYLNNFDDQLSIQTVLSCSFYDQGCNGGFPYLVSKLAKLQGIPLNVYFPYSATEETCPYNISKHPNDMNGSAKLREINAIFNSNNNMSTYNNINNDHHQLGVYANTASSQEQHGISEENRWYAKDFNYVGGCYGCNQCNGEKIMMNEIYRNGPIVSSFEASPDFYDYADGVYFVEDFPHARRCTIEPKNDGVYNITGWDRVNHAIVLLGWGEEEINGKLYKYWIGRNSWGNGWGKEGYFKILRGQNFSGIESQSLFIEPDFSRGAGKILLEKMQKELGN

First: CN1C(=O)c2ccc(NC(=O)COc3ccc(C(C)(C)C)cc3)cc2C1=O
Second: CCOc1ccc(C2C(C(=O)c3ccccc3)=C(O)C(=O)N2CCOC)cc1 (centres unmarked)
The “% Inhibition @ 10 uM” value of the first is lower: -7.14% for the first, 1.37% for the second.

Going from `OCC1CCCN1C1CCC(c2ccccc2)CC1` (centres unmarked) to `NC(=O)C1CCN(C(=O)COc2ccc(S(=O)(=O)NCc3ccccc3)cc2Cl)CC1`, the “% Inhibition @ 10 uM” value rises from -1.75% to 1.88%.

First: CCOC(=O)N1CCC(N2CC34C=CC(O3)C(C(=O)O)C4C2=O)CC1 (centres unmarked)
Second: COC(=O)c1ccccc1NC(=O)[C@@H]1C2C=CC(C2)[C@@H]1C(=O)O (some centres unmarked)
The “% Inhibition @ 10 uM” value of the first is higher: -4.69% for the first, -6.22% for the second.

First: C/C=C/COC(=O)C1=C(C)NC(=O)NC1c1ccc(Br)cc1 (centres unmarked)
Second: CS(=O)(=O)N(CC(=O)Nc1ccc(Br)cc1)c1ccccc1F
The “% Inhibition @ 10 uM” value of the first is lower: 5.16% for the first, 9.72% for the second.

Going from `CCOC(=O)Nc1ccc2c(c1)N(C(=O)CN(C)C)c1ccccc1CC2` to `CCOCCCNC(=O)/C(C#N)=C/c1c(Oc2ccccc2)nc2c(C)cccn2c1=O`, the “% Inhibition @ 10 uM” value falls from -4.26% to -5.1%.

Compared with `OCCNc1nc(Nc2ccccc2)nc2ccccc12`, `CN(CCNC(=O)NCc1noc2ccccc12)Cc1ccccc1` is higher in “% Inhibition @ 10 uM” value: -4.12% for the first, 6.84% for the second.

First: O=C(Nc1ccccc1)c1cc(S(=O)(=O)N2CCOCC2)c(Cl)cc1Cl
Second: Clc1ccc(CN2CCN(c3ccccn3)CC2)c(Cl)c1
The “% Inhibition @ 10 uM” value of the first is higher: 3.65% for the first, -4.5% for the second.

Going from `Cc1cc(C)nc(NC(=O)NS(=O)(=O)Nc2cc([N+](=O)[O-])ccc2C)n1` to `CCN(CC)S(=O)(=O)c1nnc(NC(=O)c2ccccc2F)s1`, the “% Inhibition @ 10 uM” value rises from -7.68% to -5.37%.

Compared with `CCn1c(NCc2ccncc2)nc2ccccc21`, `O=C(O)c1cnn(-c2ccccc2)c1-c1ccncc1` is higher in “% Inhibition @ 10 uM” value: 0.032% for the first, 2.39% for the second.

Compared with `COc1ccc(-c2c(C)nn3c(N4CCC(C(=O)NCCN(C)C)CC4)cc(C)nc23)cc1OC`, `Cc1ccc(-c2cn3nc(N4CCC(C(=O)NCCc5cccs5)CC4)sc3n2)cc1` is lower in “% Inhibition @ 10 uM” value: -0.138% for the first, -0.613% for the second.

Compared with `CC(=O)c1sc(NC(=O)c2ccc(COc3ccc(Cl)cc3)o2)nc1C`, `COC(=O)c1ccc(COc2ccc(C=O)cc2OC)o1` is lower in “% Inhibition @ 10 uM” value: 2.1% for the first, -6.6% for the second.

Going from `COc1ccc(C(=O)Nc2ccc(C(=O)N3CCCCC3)cc2)cc1OC` to `O=C(O)CCCNc1ccc(S(=O)(=O)N2CCCCC2)cc1`, the “% Inhibition @ 10 uM” value rises from -2.77% to 0.505%.

Going from `CCOc1cc(C2C(C#N)=C(N)Oc3[nH]nc(C)c32)ccc1OCc1ccccc1F` (centres unmarked) to `C=CCOc1ccc(C2c3c(-c4ccccc4O)n[nH]c3C(=O)N2Cc2ccncc2)cc1OCC` (centres unmarked), the “% Inhibition @ 10 uM” value rises from -1.38% to 3.27%.

First: CC(=O)/N=c1\sc2c(n1C)-c1ccccc1CC2
Second: CCCC(=O)C1=C(Nc2ccccc2O)CC(C)(C)CC1=O
The “% Inhibition @ 10 uM” value of the first is higher: 2.73% for the first, -1.08% for the second.

Going from `Cn1cnc2c1c(=O)n(Cc1ccc(-c3nnc(N)s3)cc1)c(=O)n2C` to `CCc1ccc(S(=O)(=O)c2nnn3c2nc(N2CCC(C)CC2)c2ccccc23)cc1`, the “% Inhibition @ 10 uM” value falls from 5.3% to -4.85%.

Going from `O=C(OCC1(COC(=O)c2cccs2)COC(c2ccccc2)=N1)c1cccs1` to `O=S(=O)(c1ccccc1)N1N=C(c2ccc(Cl)cc2)CC1c1cccs1` (centres unmarked), the “% Inhibition @ 10 uM” value falls from 1.32% to -5.1%.

Compared with `CC1(C)Cc2nc3nc(SCC(=O)c4ccc(Br)cc4)nc(N)c3cc2CO1`, `Cc1cc(C(=O)CSc2ncnc3sc4c(c23)CCC4)c(C)n1Cc1ccco1` is higher in “% Inhibition @ 10 uM” value: 0.776% for the first, 3.47% for the second.

Compared with `Cc1ccc(C(=O)O)cc1-c1ccc(/C=C2\SC(=O)N(CC(=O)N3CCOCC3)C2=O)o1`, `CC(=O)c1ccc(N2CCN(Cc3cccc(O)c3)CC2)cc1` is lower in “% Inhibition @ 10 uM” value: 25.3% for the first, 2.22% for the second.

Going from `CC(C)(CNS(=O)(=O)c1ccc(F)cc1)CNS(=O)(=O)c1ccc(F)cc1` to `Cc1ccc(S(=O)(=O)NC(C)(C)CSc2nc[nH]n2)cc1`, the “% Inhibition @ 10 uM” value falls from 3.72% to 0.758%.

Going from `CCc1nnc(NS(=O)(=O)c2ccc(C)cc2)s1` to `Cc1ccc(CNC(=O)CCCN2C(=O)CCn3nc(C)cc32)cc1`, the “% Inhibition @ 10 uM” value rises from -0.902% to 2.35%.

First: CCC(C)NC(=O)C1CCN(c2ncnc3c2nc2n3CCCCC2)CC1 (centres unmarked)
Second: CCN(CC)CCNc1ncnc2c1sc1nc(N3CCOCC3)c3c(c12)CC(C)(C)OC3
The “% Inhibition @ 10 uM” value of the first is higher: 3.72% for the first, -2.09% for the second.

Going from `CC(C)CCOc1ccc(C(=O)CCNC(CC(=O)O)c2ccccc2)cc1` (centres unmarked) to `COc1ccc(C(CC(=O)O)NC(=O)C(F)(F)F)cc1` (centres unmarked), the “% Inhibition @ 10 uM” value falls from 34.7% to -8.77%.

`COCCNC(=S)N(CCc1c(C)[nH]c2ccc(OC)cc12)Cc1cccnc1` and `COc1cccc(C(=O)Nc2c(-c3ccccc3)nc3cc(C)ccn23)c1OC` are the same in “% Inhibition @ 10 uM” value: 0.813% for the first, 0.813% for the second.

First: COc1ccc(/C=C2\N=C(c3ccc(Br)cc3)OC2=O)cc1
Second: COc1ccc(-c2cc(-c3ccc(C)cc3)nc(N3CCCC3)n2)cc1
The “% Inhibition @ 10 uM” value of the first is higher: 0.775% for the first, -1.5% for the second.

Compared with `O=C1CC(CC(=C2C(=O)CCCC2=O)N2CCCC2)CC(=O)N1`, `CCOc1ccc(C=C2C(=O)NC(=O)NC2=O)c(O)c1` is higher in “% Inhibition @ 10 uM” value: -0.267% for the first, 8.97% for the second.

Compared with `Cc1ccc(F)cc1S(=O)(=O)N1CCC(Oc2ccc(-n3cnnn3)cc2)CC1`, `COc1ccc(N2C(=O)C(C)SC23C(=O)Nc2ccccc23)cc1` (centres unmarked) is lower in “% Inhibition @ 10 uM” value: 3.88% for the first, 0.142% for the second.

Compared with `CC(NC(=O)c1cnn2c(C(F)F)cc(C3CC3)nc12)c1ccncc1` (centres unmarked), `CC(C)C[C@H](NC(=O)OCc1ccccc1)C(=O)NC1COCC1=O` (some centres unmarked) is higher in “% Inhibition @ 10 uM” value: -4.15% for the first, 0.173% for the second.

First: COc1cc(-c2nc3ccccn3c2/N=C/c2c[nH]nc2-c2ccccc2)ccc1O
Second: COc1ccc(Oc2coc3cc(OCc4ccccc4C)ccc3c2=O)cc1
The “% Inhibition @ 10 uM” value of the first is higher: 13.2% for the first, -4.84% for the second.

First: Cn1cccc1CN1CCN(C(=O)c2cccc(Cl)c2)CC1
Second: CCOC(=O)c1ccc(CN(Cc2ccccc2C)S(=O)(=O)c2ccc3c(c2)OCCO3)cc1
The “% Inhibition @ 10 uM” value of the first is lower: -8.76% for the first, -7.57% for the second.

First: CCCCCCc1cc2cc(C(=O)O)c(=O)oc2cc1O
Second: CCOC(=O)c1c(C)oc(NC(C)=O)c1C#N
The “% Inhibition @ 10 uM” value of the first is higher: 4.08% for the first, 1.72% for the second.

In the case of `CC(C)=CCC/C(C)=C/CN(CC(C)O)CC(C)O` (centres unmarked), the “% Inhibition @ 10 uM” value is reported as -2.34%.

For `O=C(CC1Nc2ccccc2NC1=O)Nc1cccc(C(F)(F)F)c1` (centres unmarked), the “% Inhibition @ 10 uM” value was -3.23% and 0.317%.
